Laboratory results published in PubChem BioAssay AID463173 (ICCB-Longwood Screening Facility, Harvard Medical School, 2010).
Among all 52,000 compounds or so, about 1,700 (3.3%) were called active. Cut-off read from the data, not from the text of the source: active = survival mostly below about 52% (no sharp cut-off); inactive = mostly above about 56%. This is one part of the list.

Each compound was assayed on Wild type (assay: growth inhibition of S. aureus wild type versus tarO mutant, primary screen, teichoic acid synthesis inhibitors, RN4220, OD600 (AID 463173)). Settings: S. aureus RN4220 wild type/DeltatarO growth, OD600, 18 h, hits give low values, screened at 18.75 µg/mL (by protocol).

Compound | survival
Cc1c(NS(C)(=O)=O)cccc1-c1nc2ccccc2s1 | inactive: 83%
O=c1c2ccc(N3CCOCC3)c3cccc(c32)c2nc3ccccc3n12 | inactive: 105%
Cc1c(C(=O)Nc2ccncc2)oc2ccccc12 | inactive: 102%
Cc1ccc(C)c(CN2C(=O)c3ccccc3S(=O)c3ccc(C(=O)NCCc4ccc(Cl)cc4)cc32)c1 (stereo unspecified) | inactive: 95%
COc1cccc(CNC(=O)NCc2noc3ccc(C)cc23)c1 | inactive: 89%
CCOc1ccc(N(CC)S(=O)(=O)N2CCCC(C(=O)NCc3ccc(SC)cc3)C2)cc1 (stereo unspecified) | inactive: 87%
CC1CCN(CC(=O)Nc2ccc(C(=O)O)cc2)CC1 | inactive: 99%
COc1cc(C2/C(=C(\O)c3ccc(F)cc3)C(=O)C(=O)N2Cc2cccnc2)ccc1O (stereo unspecified) | inactive: 101%
Cc1ccc(NC(=O)CN2C=NS(=O)(=O)c3ccccc32)c(C)c1 | inactive: 71%
COc1ccc(N2CCN(C(=O)CCS(=O)(=O)c3cc(Br)cc4c3N(C(=O)C3CC3)CC4)CC2)cc1 | inactive: 83%
NCc1ccoc1C(=O)O | inactive: 108%
COc1ccc(NC(=O)CN2C(=O)COc3ccc(S(=O)(=O)N4CCOCC4)cc32)cc1Cl | inactive: 97%
COc1ccc(NC(=O)Nc2nnc(N3CCCCCC3)s2)c(OC)c1 | inactive: 78%
COc1ccc(C(=O)N2CCN(c3nc4c(C)c(Cl)ccc4s3)CC2)c(OC)c1 | inactive: 88%
CCOc1ccc(NC(=O)CN(C)S(=O)(=O)c2ccc3[nH]c4c(c3c2)CCCC4)cc1 | inactive: 65%
Cc1cc(-c2ccc(S(=O)(=O)Nc3cccc(Cl)c3C)cc2)on1 | inactive: 75%
Cc1ccc(NC(=O)Cn2c(=O)ccc3cc(S(=O)(=O)N4CCCC4)ccc32)cc1N(C)C | active: 0%
O=C(c1ccc(Cl)cc1)c1cn(Cc2ccccc2)c2cc3c(cc2c1=O)OCCO3 | inactive: 107%
Cc1cc(C(=O)Nc2cccc(C)c2C)c2c(C)nn(-c3cccc(F)c3)c2n1 | inactive: 73%
COc1cc(OC)c(OC)cc1/C=C/c1nc2ccccc2c(=O)n1-c1ccc(Br)c(C)c1 | inactive: 85%
Cc1ccc(Cl)cc1N1CCN(C(=O)C2CCCN(Cc3nc(-c4cccc(Cl)c4)oc3C)C2)CC1 (stereo unspecified) | inactive: 84%
CCCCNc1nc2c(c(=O)n(Cc3ccccc3)c(=O)n2C)n1C | inactive: 67%
COc1ccc(N(C)C(=O)c2cc3c(s2)-c2ccccc2OC3)cc1 | active: 13%

Compound | survival
Cc1ccc(NC(=O)C2CCCN(S(=O)(=O)c3ccc4c(c3)CCCC(=O)N4)C2)cc1Cl (stereo unspecified) | inactive: 92%
COc1ccc(CCNC(=O)C(=O)NCC(c2cccnc2)N2CCN(c3ccccc3)CC2)cc1 (stereo unspecified) | inactive: 105%
CCC(C(=O)NCCc1ccc(Cl)cc1)n1ccc2cc(S(=O)(=O)N3CCCCC3)ccc21 (stereo unspecified) | inactive: 101%
O=C(NCc1ccc(Cl)cc1)c1ccc2c(c1)N(Cc1ccccc1F)C(=O)c1ccccc1S2=O (stereo unspecified) | inactive: 148%
CCc1ccc(CNC(=O)c2ccc(CS(=O)(=O)Cc3cccc(C)c3)o2)cc1 | inactive: 73%
CCn1c(=O)cc(SCC(=O)NCc2ccc(C)cc2)c2ccccc21 | inactive: 80%
C=Cc1ccc(Cn2c(=O)n(CC3CCC(C(=O)NC(C)C)CC3)c(=O)c3sccc32)cc1 (stereo unspecified) | inactive: 81%
O=C(NCc1ccco1)c1ccc2c(c1)N(Cc1ccccc1F)C(=O)c1ccccc1S2(=O)=O | inactive: 96%
CC(=O)Nc1ccc(S(=O)(=O)N(Cc2ccccc2)Cc2ccccc2)cc1 | inactive: 55%
CCOc1ccccc1-c1nc(C(N)=O)c2c(n1)n(-c1ccc3c(c1)OCO3)c(=O)n2C | inactive: 71%
COc1cccc(NC(=O)CCN2CCN(CCO)CC2)c1 | inactive: 138%
CCCCNC(=O)c1ccc2c(c1)NC(=O)C(CS(=O)(=O)Cc1ccc(F)cc1Cl)N2 (stereo unspecified) | inactive: 91%
CCCC(=O)Nc1ccc2nc(SCc3ccc(C)cc3)sc2c1 | inactive: 113%
CC(C)CCNC(=O)c1ccc2c(c1)nc1n2CCCCC1 | inactive: 93%
Nc1ccc2oc(Cc3ccc(Cl)cc3)nc2c1 | inactive: 75%
COc1ccc(C)cc1NC(=O)Cc1c(C(=O)O)c(C)cn1C | inactive: 74%
COCCNc1ccc(-c2nc(-c3ccccn3)no2)cc1[N+](=O)[O-] | inactive: 82%
Cc1cccc(OCC(=O)Nc2ccccc2C(=O)OCc2cc(=O)n3nc(C4CC4)sc3n2)c1 | inactive: 68%
CC(C)CCn1c(=O)c2sccc2n2c(CCCC(=O)NC(C)c3ccccc3)nnc12 (stereo unspecified) | inactive: 101%
Cc1cccc(-n2cnc3cc(C(=O)NC4CCCCCC4)ccc32)c1 | inactive: 124%
CC(=O)c1cccc(NC(=O)CSc2nc3c(=O)n(C)c(=O)n(C)c3n2C)c1 | inactive: 55%
Cc1ccc(CCNC(=O)c2cc3c(=O)n(C)c4ccccc4c3n2C)cc1 | inactive: 80%
Cc1cccc(N2CCN(c3nc4ccccc4c4nc(-c5cccnc5)nn34)CC2)c1C | inactive: 89%

Compound | survival
CCn1cc(C(=O)Nc2ccc(C(C)C)cc2)c2cc(OC)c(OC)cc2c1=O | inactive: 103%
CCc1cccc(N2C(=O)N(Cc3c(F)cccc3Cl)c3ccccc3S2(=O)=O)c1 | inactive: 69%
Cc1ccc2cc3cc(C(=O)N(C)c4ccccc4C)oc3nc2c1 | inactive: 40%
CCOC(=O)c1ccc(NC(=O)c2c(NCc3cc(OC)ccc3OC)sc3c2CCC3)cc1 | inactive: 69%
CCc1cnc2c(c1SCCC(C)C)c(=O)n(C)c(=O)n2C | inactive: 79%
Cc1cccc(C)c1NC(=O)CN1C(=O)c2ccccc2Sc2ncccc21 | inactive: 92%
COc1ccc(-c2noc(CSc3nnc(-c4ccccc4)n3C)n2)cc1 | inactive: 79%
CC(C)OCCCNC(=O)c1nn(C)c2c1CSc1ccccc1-2 | inactive: 95%
CCCOC(=O)c1ccc(Nc2c(C(=O)OCC)cnc3c(C)cc(Cl)cc23)cc1 | active: 4%
CC(=O)c1cc(-c2ccccc2)n(CC(=O)NCc2ccccc2C)c1C | inactive: 85%
COC(=O)c1cc2sc(C)cc2n1CC(=O)Nc1ccc(C)cc1Cl | inactive: 86%
C=CCn1c(N)cc(=O)nc1SCC(=O)NC1CCCCC1 | inactive: 97%
COc1ccc(C)cc1NC(=O)CN1CCN(S(=O)(=O)c2ccc(Br)cc2)CC1 | inactive: 55%
Cc1oc2c(cc(NS(=O)(=O)c3ccc(F)cc3)c3ccccc32)c1C(=O)OCc1ccccc1 | inactive: 65%
COc1ccc(NC(=O)C2CCC(CNS(=O)(=O)c3cccs3)CC2)cc1OC (stereo unspecified) | inactive: 121%
Clc1ccccc1-c1nnc(-c2ccccc2CNc2ccccc2)o1 | inactive: 96%
Cn1c(CNC(=O)c2ccccc2)n[nH]c1=S | inactive: 121%
Cc1cccc(CC(=O)Nc2cccc(-c3nc4cccnc4s3)c2)c1 | inactive: 113%
CCN1CCc2c(sc(-n3cccc3)c2C(C)NC(=O)Nc2ccccc2C)C1 (stereo unspecified) | inactive: 72%
COc1ccccc1CNC(=O)c1cc2ccc3ccc(C)[nH]c3c2n1 | inactive: 81%
Cc1ccccc1CSCCNC(=O)CN(c1ccccc1)S(=O)(=O)N(C)C | inactive: 67%
Cc1ccc(C)c(N2CCN(S(=O)(=O)c3csc(C(N)=O)c3)CC2)c1 | inactive: 78%
CCCNc1c2c(nc3ccccc13)CC(C)(C)CC2=O | inactive: 112%

Compound | survival
CCn1nnc2cc(C(=O)Nc3cccc(C)c3C)ccc21 | inactive: 64%
C=CCn1cc(/C=C(\C#N)C(=O)NC2CCCCC2)c2ccccc21 | inactive: 123%
Cc1cccc(Oc2ccc(NC(=O)CCC(=O)OCC(=O)c3ccc(Br)cc3)cc2)c1C | inactive: 80%
COc1cccc(C(C(=O)NCc2ccccc2)N(C(=O)Cn2nnc3ccccc32)c2cccc(C(C)=O)c2)c1 (stereo unspecified) | inactive: 84%
Cc1ccc(C)c(CSc2cn(CCNC(=O)c3ccccc3F)c3ccccc23)c1 | inactive: 30%
COc1ccc(NC(=O)c2oc3ccc(S(=O)(=O)N4CCC5(CC4)OCCO5)cc3c2C)cc1Cl | inactive: 74%
COc1cc(C2c3c(-c4ccccc4O)n[nH]c3C(=O)N2CCO)ccc1OCC(C)C (stereo unspecified) | inactive: 108%
COc1ccc(Cc2c(C)nn(-c3nc(C)c(C(=O)Nc4ccc(C)cc4C)s3)c2C)cc1 | inactive: 79%
CCCN1CCN(CCCNC(=O)c2ccc(CS(=O)c3ccc(OC)cc3)o2)CC1 (stereo unspecified) | inactive: 83%
CCN(CC)CCNC(=O)c1cc2c(=O)oc3ccc(C)cc3c2s1 | inactive: 72%
CCCN(CCC)C(=O)CSc1nnc2cc(C)c3ccccc3n12 | inactive: 84%
CCCCc1ccc(NC(=O)CSc2nnc3[nH]c(=O)cc(C)n23)cc1 | inactive: 80%
COC(=O)COc1cc(C)nc(SC)n1 | inactive: 98%
Cc1cc(C)c(Cn2c3ccccc3c3cnn(CC(=O)NCC(C)c4ccccc4)c(=O)c32)c(C)c1 (stereo unspecified) | inactive: 80%
O=C(/C=C/c1ccc(Cl)cc1)Nc1nc(-c2cccs2)ns1 | inactive: 75%
Cc1ccc(NC(=O)Cn2nnc3sc4c(c3c2=O)CCCC4)c(C)c1 | inactive: 72%
COc1ccc(Cc2nnc(SCC(=O)N3CCCC3)o2)cc1 | inactive: 109%
O=C(Nc1ccccc1)C1CCCN1C(=O)NCc1ccccc1 (stereo unspecified) | inactive: 101%
CCn1cc(C(=O)NCc2ccc(F)cc2)c(=O)c2cc(S(=O)(=O)N(C)C)ccc21 | inactive: 77%
Cn1c(SCCC(=O)O)nnc1-c1ccncc1 | inactive: 105%
O=C(O)C1CSC2(CCN(Cc3ccccc3)CC2)N1 (stereo unspecified) | inactive: 103%
COc1ccc(-n2c(CCC(=O)O)ccc2-c2ccccc2)c(OC)c1 | inactive: 69%
